# Measured values: the supplement of paper PMC8728848
# The list shows a part of the results.
# Key:
# Assay in all cases: glycan array binding signal (z-score within array); higher = stronger binding
# Conditions in all cases: glycan notation: IUPAC condensed, linker removed
# [1] = target: Neu5Ac(a2-3)Gal(b1-4)GlcNAc(b1-3)Gal(b1-4)GlcNAc(b1-3)Gal(b1-4)GlcNAc
# Outline: (§1)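 Glycan array data were curated from 3228 arrays in the Consortium for Functional Glycomics database and kept only where the protein sequence was available. Glycan names were converted to IUPAC-condensed notation, and columns mapping to the same glycan were averaged. The binding signal is a within-array Z-score, averaged across arrays of the same protein sequence at different concentrations or buffers and across linkers. Negative Z-scores can be read as non-binding.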
# [2] = target: Neu5Ac(a2-3)Gal(b1-4)GlcNAc(b1-3)Gal(b1-4)GlcNAc(b1-3)Gal(b1-4)GlcNAc(b1-2)Man(a1-3)[Neu5Ac(a2-3)Gal(b1-4)GlcNAc(b1-3)Gal(b1-4)GlcNAc(b1-3)Gal(b1-4)GlcNAc(b1-2)Man(a1-6)]GalNAc
# Outline: as §1
# [3] = target: Neu5Ac(a2-3)Gal(b1-4)GlcNAc(b1-3)Gal(b1-4)GlcNAc(b1-3)GalNAc
# Outline: as §1
# [4] = target: Neu5Ac(a2-3)Gal(b1-4)GlcNAc(b1-3)Gal(b1-4)GlcNAc(b1-3)[Neu5Ac(a2-3)Gal(b1-4)GlcNAc(b1-3)Gal(b1-4)GlcNAc(b1-6)]GalNAc
# Outline: as §1
# [5] = target: Neu5Ac(a2-3)Gal(b1-4)GlcNAc(b1-3)Gal(b1-4)GlcNAc(b1-6)[Gal(b1-3)]GalNAc
# Outline: as §1
# [6] = target: Neu5Ac(a2-3)Gal(b1-4)GlcNAc(b1-3)Gal(b1-4)[Fuc(a1-3)]GlcNAc
# Outline: as §1
# [7] = target: Neu5Ac(a2-3)Gal(b1-4)GlcNAc(b1-3)GalNAc
# Outline: as §1
# [8] = target: Neu5Ac(a2-3)Gal(b1-4)GlcNAc(b1-3)[Neu5Ac(a2-3)Gal(b1-4)GlcNAc(b1-6)]GalNAc
# Outline: as §1
# [9] = target: Neu5Ac(a2-3)Gal(b1-4)GlcNAc(b1-6)GalNAc
# Outline: as §1
# [10] = target: Neu5Ac(a2-3)Gal(b1-4)GlcNAc(b1-6)[Gal(b1-3)]GalNAc
# Outline: as §1
# [11] = target: Neu5Ac(a2-3)Gal(b1-4)GlcNAc(b1-6)[Neu5Ac(a2-3)Gal(b1-3)]GalNAc
# Outline: as §1
# [12] = target: Neu5Ac(a2-3)Gal(b1-4)GlcNAc6S
# Outline: as §1
# [13] = target: Neu5Ac(a2-3)Gal(b1-4)[Fuc(a1-3)]GlcNAc
# Outline: as §1
# [14] = target: Neu5Ac(a2-3)Gal(b1-4)[Fuc(a1-3)]GlcNAc(b1-2)Man
# Outline: as §1
# [15] = target: Neu5Ac(a2-3)Gal(b1-4)[Fuc(a1-3)]GlcNAc(b1-3)Gal
# Outline: as §1
# [16] = target: Neu5Ac(a2-3)Gal(b1-4)[Fuc(a1-3)]GlcNAc(b1-3)Gal(b1-4)GlcNAc
# Outline: as §1
# [17] = target: Neu5Ac(a2-3)Gal(b1-4)[Fuc(a1-3)]GlcNAc(b1-3)Gal(b1-4)[Fuc(a1-3)]GlcNAc(b1-3)Gal(b1-4)[Fuc(a1-3)]GlcNAc
# Outline: as §1
# [18] = target: Neu5Ac(a2-3)Gal(b1-4)[Fuc(a1-3)]GlcNAc(b1-3)GalNAc
# Outline: as §1
# [19] = target: Neu5Ac(a2-3)Gal(b1-4)[Fuc(a1-3)]GlcNAc(b1-6)[Gal(b1-3)]GalNAc
# Outline: as §1
# [20] = target: Neu5Ac(a2-3)Gal(b1-4)[Fuc(a1-3)]GlcNAc(b1-6)[Neu5Ac(a2-3)Gal(b1-3)]GalNAc
# Outline: as §1
# [21] = target: Neu5Ac(a2-3)Gal(b1-4)[Fuc(a1-3)]GlcNAc6S
# Outline: as §1
# [22] = target: Neu5Ac(a2-3)Gal6S(b1-4)GlcNAc
# Outline: as §1
# [23] = target: Neu5Ac(a2-3)Gal6S(b1-4)[Fuc(a1-3)]GlcNAc
# Outline: as §1
# [24] = target: Neu5Ac(a2-3)GalNAc
# Outline: as §1
# [25] = target: Neu5Ac(a2-3)GalNAc(b1-4)GlcNAc
# Outline: as §1
# [26] = target: Neu5Ac(a2-3)[GalNAc(b1-4)]Gal(b1-4)Glc
# Outline: as §1
# [27] = target: Neu5Ac(a2-3)[GalNAc(b1-4)]Gal(b1-4)GlcNAc
# Outline: as §1
# [28] = target: Neu5Ac(a2-3)[GalNAc(b1-4)]Gal(b1-4)GlcNAc(b1-3)GalNAc
# Outline: as §1
# [29] = target: Neu5Ac(a2-3)[Neu5Ac(a2-6)]GalNAc
# Outline: as §1
# [30] = target: Neu5Ac(a2-6)Gal
# Outline: as §1
# [31] = target: Neu5Ac(a2-6)Gal(b1-3)GlcNAc(b1-3)[Gal(b1-4)GlcNAc(b1-6)]Gal(b1-4)Glc
# Outline: as §1
# [32] = target: Neu5Ac(a2-6)Gal(b1-4)Glc
# Outline: as §1
# [33] = target: Neu5Ac(a2-6)Gal(b1-4)GlcNAc
# Outline: as §1
# [34] = target: Neu5Ac(a2-6)Gal(b1-4)GlcNAc(b1-2)Man
# Outline: as §1
# [35] = target: Neu5Ac(a2-6)Gal(b1-4)GlcNAc(b1-2)Man(a1-3)Man(b1-4)GlcNAc(b1-4)GlcNAc
# Outline: as §1
# [36] = target: Neu5Ac(a2-6)Gal(b1-4)GlcNAc(b1-2)Man(a1-3)[Gal(b1-4)GlcNAc(b1-2)Man(a1-6)]Man(b1-4)GlcNAc(b1-4)GlcNAc
# Outline: as §1
# [37] = target: Neu5Ac(a2-6)Gal(b1-4)GlcNAc(b1-2)Man(a1-3)[GlcNAc(b1-2)Man(a1-6)]Man(b1-4)GlcNAc(b1-4)GlcNAc
# Outline: as §1
# [38] = target: Neu5Ac(a2-6)Gal(b1-4)GlcNAc(b1-2)Man(a1-3)[GlcNAc(b1-4)][Neu5Ac(a2-6)Gal(b1-4)GlcNAc(b1-2)Man(a1-6)]Man(b1-4)GlcNAc(b1-4)GlcNAc
# Outline: as §1
binder,measurement,setting,value
Na-CTL-1 (Necator americanus) (protein) MQRSFLLLLVVLAGAWAVNTTIPLKLMGGFTPMKYQCVGRVSDIWADVLFLIESSDMITKSGFRQVIAFITATTKKMTIGQDEKQTRVGFITYGEEAKLIYDLDHWRSTEKLSDLVQKIPYVKSSGTNIAAAIALANKVFNSPTHRPNVPKVMVIVANGLKKGSQNPIPVATAFKDFGGIIITIEYTQYDNIQVPILKKIASEGYNIRSNDEDFSVRTLTNMLLQANCFCPDHYVPFRVNNPEFGCFVTAKIPSMWRDAAEMCRAVEEGKLVKVENEEKAAFIMKLVGPKKEAWIGLRYYGNKFQWTDGTKLNADDFNLWPEDIKELNGPHCVSMYQDQKDKKYYWRAGKCLEDMRYVCEVQPCSASNYCSEPVFMYRQKHRALLPAPPPPPN,glycan array binding signal (z-score),[1],-0.448
same,glycan array binding signal (z-score),[2],1.09
same,glycan array binding signal (z-score),[3],-0.265
same,glycan array binding signal (z-score),[4],0.047
same,glycan array binding signal (z-score),[5],-0.69
same,glycan array binding signal (z-score),[6],-0.604
same,glycan array binding signal (z-score),[7],-0.426
same,glycan array binding signal (z-score),[8],-0.528
same,glycan array binding signal (z-score),[9],-0.166
same,glycan array binding signal (z-score),[10],-0.28
same,glycan array binding signal (z-score),[11],-0.065
same,glycan array binding signal (z-score),[12],-0.462
same,glycan array binding signal (z-score),[13],-0.126
same,glycan array binding signal (z-score),[14],-0.602
same,glycan array binding signal (z-score),[15],-0.062
same,glycan array binding signal (z-score),[16],0.392
same,glycan array binding signal (z-score),[17],-0.054
same,glycan array binding signal (z-score),[18],1.51
same,glycan array binding signal (z-score),[19],-0.051
same,glycan array binding signal (z-score),[20],0.402
same,glycan array binding signal (z-score),[21],-0.221
same,glycan array binding signal (z-score),[22],0.046
same,glycan array binding signal (z-score),[23],-0.585
same,glycan array binding signal (z-score),[24],-0.442
same,glycan array binding signal (z-score),[25],0.55
same,glycan array binding signal (z-score),[26],-0.665
same,glycan array binding signal (z-score),[27],-0.222
same,glycan array binding signal (z-score),[28],-0.27
same,glycan array binding signal (z-score),[29],-0.451
same,glycan array binding signal (z-score),[30],1.45
same,glycan array binding signal (z-score),[31],-0.757
same,glycan array binding signal (z-score),[32],-0.543
same,glycan array binding signal (z-score),[33],-0.245
same,glycan array binding signal (z-score),[34],-0.485
same,glycan array binding signal (z-score),[35],-0.008
same,glycan array binding signal (z-score),[36],-0.425
same,glycan array binding signal (z-score),[37],-0.454
same,glycan array binding signal (z-score),[38],-0.05
